Target: T1, monomeric carbohydrate-recognition domain (CRD) from DC-SIGN (UniProt Q9NNX6 250-404)
T1 construct: DC-SIGN, carbohydrate-recognition domain; it calls the CRD monomeric; also called monomeric CRD; dendritic cell-specific intercellular adhesion molecule 3-grabbing nonintegrin CRD
T1 sequence (looked up): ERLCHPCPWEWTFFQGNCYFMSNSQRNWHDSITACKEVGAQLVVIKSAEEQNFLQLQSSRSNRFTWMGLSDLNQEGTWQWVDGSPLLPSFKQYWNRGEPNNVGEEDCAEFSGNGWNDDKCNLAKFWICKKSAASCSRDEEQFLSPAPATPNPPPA
Experiment: radioligand binding; competition: CRD of DC-SIGN immobilised on polystyrene wells, 125I-labeled mannose-BSA as reporter ligand, competing ligand titrated; KI = concentration for 50% inhibition
Conditions: both partners purified

B1: soybean agglutinin (natural protein, UniProt P05046 33-285, looked up)
chain: AETVSFSWNKFVPKQPNMILQGDAIVTSSGKLQLNKVDENGTPKPSSLGRALYSTPIHIWDKETGSVASFAASFNFTFYAPDTKRLADGLAFFLAPIDTKPQTHAGYLGLFNENESGDQVVAVEFDTFRNSWDPPNPHIGINVNSIRSIKTTSWDLANNKVAKVLITYDASTSLLVASLVYPSQRTSNILSDVVDLKTSLPEWVRIGFSAATGLDIPGESHDVLSWSFASNLPHASSNIDPLDLTSFVLHEAI
modifications: a single, uniform Man9GlcNAc2 oligosaccharide on each subunit
notes: also called SBA; intact soybean agglutinin
  Ki: 2400 nM

— article PMC2824085, “Identification of Novel Contributions to High-affinity Glycoprotein–Receptor Interactions using Engineered Ligands” (Journal of Molecular Biology, 2010)
